Assay results from the supplement of paper PMC8512760.
Some of the results follow. Many values rest on one well or one pass, so single values are uncertain.

Key:
Assay in all cases: cell viability relative to vehicle (% of vehicle); basal-like triple-negative breast cancer lines; higher = less cytotoxic
Settings in all cases: 10 µM; 72 h
[1] = test system: HCC-1143
[2] = test system: HCC-1187
[3] = test system: MDA-468
[4] = test system: SUM-149
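Note: stably firefly luciferase-GFP labeled cells in 96-well plates, viability read as luciferase photon flux after d-luciferin addition, treated wells normalized to vehicle wells, single-dose high-throughput screen.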

SMILES | cell viability [1] | cell viability [2] | cell viability [3] | cell viability [4]
CCCCC(C)(O)C/C=C/[C@H]1[C@H](O)CC(=O)[C@@H]1CCCCCCC(=O)OC (mixture of isomers) [Misoprostol] | 76.8 | 100 | 115 | 106
Cc1onc(-c2ccccc2)c1C(=O)NC1C(=O)N2C1SC(C)(C)C2C(=O)[O-].O.[Na+] (configuration not stated) [Oxacillin sodium monohydrate] | 116 | 101 | 100 | 106
CC(C)c1nc(N(C)S(C)(=O)=O)nc(-c2ccc(F)cc2)c1C=CC(O)CC(O)CC(=O)[O-].CC(C)c1nc(N(C)S(C)(=O)=O)nc(-c2ccc(F)cc2)c1C=CC(O)CC(O)CC(=O)[O-].[Ca+2] (configuration not stated) [Rosuvastatin Calcium] | 73.9 | 81.9 | 90.6 | 83.8
CC(NCCc1ccc(O)cc1)C(O)c1ccc(O)cc1.Cl (configuration not stated) [Ritodrine HCl] | 82.1 | 102 | 143 | 93.3
CS(=O)(=O)c1ccc(C2=C(c3ccccc3)C(=O)OC2)cc1 [Rofecoxib] | 109 | 94.9 | 115 | 115
COC(=O)CCc1ccc(OCC(O)CNC(C)C)cc1.Cl (configuration not stated) [Esmolol HCl] | 77.4 | 101 | 118 | 105
CCn1cc(C(=O)O)c(=O)c2ccc(C)nc21 [Nalidixic acid] | 82 | 88.8 | 91.1 | 99
CN1CCN(CCOc2cc(OC3CCOCC3)c3c(Nc4c(Cl)ccc5c4OCO5)ncnc3c2)CC1 [Saracatinib (AZD0530)] | 87.7 | 108 | 95.6 | 37.6
